The whole screen tested about 310,000 compounds, of which about 2,200 (0.71%) showed an effect of 50% or more. Effects have a minus sign here. The list shows a part of the results.
The compounds below were run against human ether-à-go-go-related gene (hERG) potassium channel (human, UniProt Q12809) (assay: primary screen, population patch clamp on CHO cells stably expressing hERG).
Chain of human ether-à-go-go-related gene (hERG) potassium channel (Q12809 whole entry, looked up): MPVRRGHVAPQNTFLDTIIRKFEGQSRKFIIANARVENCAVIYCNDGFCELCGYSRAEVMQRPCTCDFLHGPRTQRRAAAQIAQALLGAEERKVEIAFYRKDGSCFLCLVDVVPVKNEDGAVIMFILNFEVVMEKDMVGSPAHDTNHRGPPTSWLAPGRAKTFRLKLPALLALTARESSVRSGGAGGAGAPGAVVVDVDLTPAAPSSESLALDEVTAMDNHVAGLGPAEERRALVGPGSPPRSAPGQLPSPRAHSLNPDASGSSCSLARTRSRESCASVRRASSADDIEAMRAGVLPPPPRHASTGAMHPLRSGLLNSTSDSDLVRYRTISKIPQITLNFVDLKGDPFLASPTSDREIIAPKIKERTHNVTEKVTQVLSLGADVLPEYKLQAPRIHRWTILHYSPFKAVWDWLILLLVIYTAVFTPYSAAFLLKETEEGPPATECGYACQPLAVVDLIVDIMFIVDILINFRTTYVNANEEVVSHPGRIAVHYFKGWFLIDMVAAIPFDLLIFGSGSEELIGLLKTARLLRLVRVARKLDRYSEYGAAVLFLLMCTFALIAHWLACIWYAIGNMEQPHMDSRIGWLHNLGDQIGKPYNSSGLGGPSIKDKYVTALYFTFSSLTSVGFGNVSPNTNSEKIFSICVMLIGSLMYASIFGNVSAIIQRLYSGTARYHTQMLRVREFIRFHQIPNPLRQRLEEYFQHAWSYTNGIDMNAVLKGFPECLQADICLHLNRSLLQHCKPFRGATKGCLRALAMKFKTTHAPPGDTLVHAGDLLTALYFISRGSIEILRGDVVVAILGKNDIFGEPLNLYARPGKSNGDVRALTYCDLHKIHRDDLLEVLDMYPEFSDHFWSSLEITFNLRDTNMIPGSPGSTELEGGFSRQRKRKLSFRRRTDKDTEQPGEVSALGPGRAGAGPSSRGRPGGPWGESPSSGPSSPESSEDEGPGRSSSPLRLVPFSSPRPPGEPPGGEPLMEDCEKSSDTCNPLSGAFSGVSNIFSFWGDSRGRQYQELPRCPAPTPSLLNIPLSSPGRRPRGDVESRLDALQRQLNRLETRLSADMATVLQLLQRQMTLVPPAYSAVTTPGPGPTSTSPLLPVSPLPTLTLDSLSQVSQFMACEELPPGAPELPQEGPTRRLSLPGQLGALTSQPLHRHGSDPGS

SMILES	hERG current change (%, negative = inhibition) at 1uM [%]
O=c1[nH]c2ccc(S(=O)(=O)Nc3ccc(-c4nnc5n4CCCCC5)cc3)cc2o1	11.7
FC(F)(F)C1=CC(c2ccc(Cl)cc2)=NCCN1	2.84
COC(=O)c1c(C(=O)OC)c(-c2ccccc2)n2c1CS(=O)(=O)C2	14.5
O=c1[nH]nc(Cc2ccc(Cl)cc2Cl)c2ccccc12	14.1
Cc1ccc(C)n1CCN1CCN(C(=O)c2ccco2)CC1	11.5
O=[N+]([O-])c1cc(S(=O)(=O)NC2=NCCCCC2)ccc1NCC1CCCCC1	12.4
Cc1cc(OCCCCCNCCO)cc(C)c1Cl	-8.25
O=C1CCC(=O)N1CCCCCc1nc(-c2ccccc2)no1	2.96
COc1ccc(CNC(=O)C2CCCN(c3ncnc4c3nc3n4CCCCC3)C2)cc1 (stereo not shown)	-2.33
CC(C)CN(C(=O)COC(=O)CCc1c[nH]c2ccccc12)C1CCS(=O)(=O)C1 (stereo not shown)	6
O=C(NCn1cnccc1=O)c1ccccc1	20.9
CC(CC(=O)O)CC(=O)Nc1cc(C(F)(F)F)cc(C(F)(F)F)c1 (stereo not shown)	26.7
CCO/C(C)=N/n1c2nc3ccccc3nc2c2c(=O)n(C3CCCC3)c(C)nc21	7
O=S(=O)(c1cccc2nsnc12)N1CCCC1	4.49
Cc1c(C(=O)N2CCNCC2)oc2ccccc12.Cl	16.5
CC1(C)Cc2ccccc2-c2nnc(-c3ccc4ccccc4n3)n21	7.4
COc1cccc(CN2CCN(C(=O)c3ccco3)CC2)c1OC	1.41
O=C(Nc1ccc(S(=O)(=O)NC2=NCCCCC2)cc1)c1ccc(Cl)cc1Cl	12
Cc1ccc(NC(=O)Nc2nc(-c3ccc(C)s3)cs2)cc1	8.43
Cn1c(O)c(/C=C2\C=Nc3ccccc32)c(=O)n(C)c1=O	8.77
O=C(CSc1nccc(=O)[nH]1)c1c[nH]c2ccccc12	6.07
COc1ccc(Br)c(C(=O)NC2CCCC2)c1	13.6
COc1cc2c(cc1OC)CN(C(=O)CCCOc1ccc(Cl)cc1Cl)CC2	15.6

SMILES	hERG current change (%, negative = inhibition) at 1uM [%]
CCN(CC)S(=O)(=O)c1cccc(NC(=O)COC(=O)CCC(=O)c2ccc(F)cc2)c1	13.5
COc1ccc(C2(O)CN(c3ccc(C)cc3)C3=[N+]2CCCC3)cc1.[Br-] (stereo not shown)	0.777
CCn1c(SCC(=O)O)nnc1-c1ccc(S(=O)(=O)N2CCCC2)cc1	13.3
CC(C)Cc1nnc(NS(=O)(=O)c2ccc([N+](=O)[O-])cc2)s1	10.4
COC(=O)C[C@H]1c2ccc(C(F)(F)F)cc2S(=O)(=O)N1Cc1ccccc1	-0.0746
CC(=O)Nc1ccc(-c2sc(Nc3ccccc3)n[n+]2C)cc1.[Cl-]	14.9
Cc1ccc(C2(C)NC(=O)N(CC(=O)Nc3ccc4c(c3)CCC4)C2=O)cc1 (stereo not shown)	10.8
O=C(CCN1C(=O)c2ccccc2S1(=O)=O)NCc1ccco1	8.38
N#Cc1cccc(NC(=O)Cn2cnc(S(=O)(=O)N3CCOCC3)c2)c1	9.81
CCCCN1Cc2cc(C(=O)c3cc(OC)ccc3O)cnc2NC1=O	4.49
COc1ccc(-c2c(-c3cccc(C)c3)oc3ccc(-c4ccc5c(c4)OCO5)cc23)cn1	2.93
Cc1cc(NC(=O)CSc2nnc(-c3ccoc3C)o2)no1	8.59
O=C(COc1ccc(Cl)cc1Cl)Nc1c(-c2cccs2)nc2ccccn12	14.7
COCCN(C(=O)CCC(=O)Nc1cc(C)on1)C(C(=O)NC(C)(C)C)c1ccc(OC)cc1 (stereo not shown)	7.5
CC1=C(C(=O)OCCOC(C)C)C(c2cccnc2)C2=C(CCCC2=O)N1 (stereo not shown)	16.4
COC(=O)N/N=C\c1cccc(OC(=O)c2cccs2)c1	7.11
O=C(c1cccs1)N1CCN=C1SCc1ccccc1F	6.28
O=C(CCN1CCCC1)c1cccs1	13
COC(=O)c1c(SCC(=O)NC2CCCCC2)[nH]c2ccccc2c1=O	8.82
O=C(c1ccco1)N1CCN(c2ncnc3c2oc2ccccc23)CC1	-18.1
O=C1CCCc2c1[nH]c1ccc(CN3CCCCC3)cc21	-1.95
CNC(=O)COC(=O)c1ccc(NS(=O)(=O)c2ccc3c(c2)OCCO3)cc1	10.4
COc1ccccc1C(=O)NCC(=O)NCCCN1CCOCC1	9.26

SMILES	hERG current change (%, negative = inhibition) at 1uM [%]
COc1ccc(N(C(=O)CCl)C(C(=O)NC2CCCCC2)c2cccnc2)cc1 (stereo not shown)	15.4
COc1ccc(C(CNC(=O)/C=C/c2c(Cl)nc3ccccn23)N(C)C)cc1 (stereo not shown)	9.35
O=C(CSc1nnc(NC(=O)c2ccc(F)cc2)s1)NC1CCCC1	11.3
COc1cc2c(cc1OC)C(c1ccc3c(c1)OCO3)C1=C(CC(C)(C)CC1=O)N2 (stereo not shown)	2.28
Cc1ccc(/C=C(/C#N)c2nc(CCN3C(=O)c4ccccc4C3=O)cs2)cc1	23.9
Cc1ccccc1CNC(=O)c1ccccc1C	14.4
Cc1cccc(-n2nc3c(c2NC(=O)CCCl)CSC3)c1	9.01
O=[N+]([O-])c1ccc(NC(=S)N2CCc3ccccc32)cc1	8.05
Cc1[nH]c(C(=O)O)c(C)c1C(=O)OC(C)C	-1.89
COC(=O)c1ccc(/C=N/N2CCN(Cc3ccccc3)CC2)cc1	9.24
O=C(NCCSCc1ccccc1)c1cc(S(=O)(=O)N2CCOCC2)ccc1F	5.76
CC(C)CCNC(=O)[C@H](CC(C)C)NC(=O)[C@H]1O[C@@H]1C(=O)O	29.2
O=C(COc1ccccc1)N=C1SC2CS(=O)(=O)CC2N1c1ccc(F)cc1 (stereo not shown)	13.1
O=C(O)C(=O)O.O=C(c1ccncc1)N1CCN(C2CCCCC2)CC1	5.44
CC(OC(=O)c1ccc(Br)o1)C(=O)Nc1ccc2c(c1)OCCO2 (stereo not shown)	4.49
O=S1(=O)CCC(NCC2CCCO2)C1 (stereo not shown)	12.9
CSc1ccccc1OCc1cc(C(=O)N2CCC(Oc3cccnc3)CC2)no1	4.42
COc1ccc(S(=O)(=O)N(C)CC(=O)NCCC2=CCCCC2)cc1	18
Cc1ccc(NS(=O)(=O)c2cccc3cccnc23)c(Cl)c1	13.3
Cc1cccc(NC(=O)CSc2nc(N)c(NC(=O)c3cccs3)c(=O)[nH]2)c1C	0.118
COc1ccc(-c2cc(C(F)F)n3ncc(C(=O)NCCCN4CCCC4=O)c3n2)cc1	-9.38
CCCn1c(SCC(=O)Nc2ccccc2N2CCCCC2)nc2c1c(=O)n(C)c(=O)n2C	-6.7
Cc1ccc(S(=O)(=O)N(C)CC(=O)Nc2ccncc2)cc1	6.17

SMILES	hERG current change (%, negative = inhibition) at 1uM [%]
Cc1ccc(-c2c(C(=O)N3CCOCC3)oc(=O)c3ccccc23)cc1	-1.75
CC(=O)N/N=C(\C)c1ccc2c(c1)OCCO2	12.9
COC(=O)CSc1nc(C2CC2)cc(C(F)(F)F)c1C#N	8.84
O=c1[nH]c(C2CCN(S(=O)(=O)c3ccccc3C(F)(F)F)CC2)nc2c1nnn2Cc1cccc(F)c1	11.6
CCn1c(COc2ccccc2)nnc1SCC(=O)NC1CCCCC1	12
O=S(=O)(NCc1ccco1)c1cccc(S(=O)(=O)N2CCOCC2)c1	0.6
CSCC[C@H](NC(=O)N1CCn2c1nc1ccccc12)C(=O)NCc1ccc2c(c1)OCO2	-5.71
CCN(C(=O)C(C)OC(=O)CCCNC(=O)c1ccc(Cl)cc1)c1ccccc1 (stereo not shown)	2.98
COc1cc(/C=N/NC(=O)c2cc[n+]([O-])cc2)ccc1O	14.4
Cc1[nH]nc2c1C(c1ccc(OC(=O)c3ccco3)cc1)C(C#N)=C(N)O2 (stereo not shown)	18.7
Cc1cc(NS(=O)(=O)c2ccc(NC(=O)CCCOc3ccc(Cl)cc3)cc2)no1	14
Br.CCOc1ccc(N=c2scc(-c3ccc(OC)cc3)n2CCO)cc1	8.9
CC(=O)NNC(=O)c1cc2sccc2s1	8.59
S=c1[nH]nc(-c2cccc(Cl)c2)n1/N=C/c1ccco1	10.3
Cn1c(=O)c2cc3ccc(Cl)cc3nc2n(C)c1=O	4.78
COC(=O)c1ccccc1NC(=O)/C=C/C(=O)O	-0.611
CC1Cc2ccccc2C(=O)N1 (stereo not shown)	13.7
COc1ccc(C(=O)O/N=C(/C)c2cccs2)cc1	18.8
Cc1cc2c(OCC(O)CN3CCCCC3)cccc2[nH]1 (stereo not shown)	17
COc1ccc(C2NC(c3ccc(OC)cc3)C(C)C(=O)C2C)cc1 (stereo not shown)	8.8
Cc1cccn2c(=O)c(/C=C(\C#N)C(N)=O)c(N3CCCCCC3)nc12	8.25
Cc1cc(C)c(S(=O)(=O)Nc2ccc(O)c(Sc3ncn[nH]3)c2)c(C)c1	-3.56
